About 12,000 (3.5%) of roughly 340,000 compounds were called active. The inconclusive results got no clear call from the source; some entries with a clear call stand among them for comparison. Calls come from the whole dose curve; as a rule, active = well fitted inhibition curve with a large enough effect; inconclusive = small, poorly fitted or top-dose-only effect, or another doubt; inactive = no such curve, though single readings can be large or run the other way. No potency is given beside an inconclusive call; the fits are too rough.
Assay: qHTS Assay for Inhibitors of Hepatitis C Virus (HCV)
Conditions: Huh7.5.1 HCVcc-Cre (HCVcc is cell-culture hepatitis C virus) infection, luciferase reporter, 44 h; activity change, negative = inhibition: at 41.8 µM (top of the series) unless noted
In short: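 Infectious HCV cell culture screen: compound-treated cells (1,000/well, pre-plated 4 h) are infected with HCVcc-Cre at roughly 0.5 moi and grown 44 h. Infection is quantified by luciferase signal after 15 min substrate incubation at room temperature.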
% is set by controls: 0 for no effect and ±100 for the full control effect; potency is the fitted concentration of half-maximal effect; tags give direction and shape of the fitted curve.

Compound | Potency | activity change, negative = inhibition
O=C(N/N=C/c1cn(-c2ccccc2)nc1-c1cccs1)c1ccncc1 | inconclusive [inhibitor, full curve] | 
COc1ccc(NC(=O)Cc2ccc(C)cc2)cc1S(=O)(=O)N1CCCCC1 | inconclusive [inhibitor, partial curve] | 
CCOC(=O)N1CCN(C(=O)c2ccc3c(c2)N(Cc2cccc(Cl)c2)C(=O)c2ccccc2S3=O)CC1 (stereo not drawn) | active: 17.8 µM | 
COc1ccccc1N1CCN(C(=O)CCn2c(=O)[nH]c3ccccc3c2=O)CC1 |  | inactive: 0.496%
COc1cc(NC(=O)C(=O)Nc2ccc3nc4n(c(=O)c3c2)CCCCC4)cc(OC)c1OC |  | inactive: -13.3%
CCOC(=O)Cc1nn(Cc2ccc(Cl)cc2)c(=O)c2ccccc12 | inconclusive [inhibitor, full curve] | 
CC(C(=O)Nc1ccc(S(=O)(=O)N2CCCC2)cc1)N(C)CC(=O)Nc1cccc(F)c1 (stereo not drawn) | inconclusive [inhibitor, partial curve] | 
COc1ccc(C(=O)/C=C/c2cccnc2)c(OC)c1 | inconclusive [inhibitor, single point] | 
CC(C)NC(=O)Nc1cccc2c1O[C@H](CN(C)C(=O)NC1CCCCC1)[C@H](C)CN([C@H](C)CO)C2=O |  | inactive: -5.09%
Clc1ccc(CN2C3=NCCN3c3ccccc32)cc1 | active: 12.6 µM | 
CC(C)(C)OC(=O)NCCCC[C@H](NC(=O)c1nc[nH]c1C(=O)N1CCc2ccccc2C1)C(=O)OC(C)(C)C | inconclusive [inhibitor, partial curve] | 
CCOC(=O)/C(=C/C=C/c1ccccc1)NC(=O)c1ccccc1 | inconclusive [inhibitor, partial curve] | 
CC(C)Cn1cnc2c1c(=O)n(CC(=O)NC(=O)NC(C)(C)C)c(=O)n2Cc1ccccc1 | inconclusive [inhibitor, single point] | 
CCOc1ccc(CCNC(=O)CCC(=O)N2CCOc3ccc(C)cc32)cc1OCC | inconclusive [inhibitor, partial curve] | 
COc1cccc(/C=N/NC(=O)CNC(=O)C(c2ccccc2)c2ccccc2)c1O | inconclusive [inhibitor, single point] | 
COc1ccc(CN(C)C(=O)Cn2cnc(C(=O)Nc3ccc(C)c(C)c3)n2)cc1OC | inconclusive [inhibitor, partial curve] | 
O=C1NC2=C(C(=O)CCC2)C(c2cccc([N+](=O)[O-])c2)N1 (stereo not drawn) |  | inactive: 16.2%
COc1ccc(S(=O)(=O)N2CCCC2C(=O)n2nc(C)cc2C)cc1 (stereo not drawn) |  | inactive: -5.23%
O=C(/C=C\Nc1ccc2c(c1)OCO2)c1ccccn1 |  | inactive: 14.5%
c1ccc2c(c1)CC/C2=N/Nc1nc2ccccc2[nH]1 | inconclusive [inhibitor, single point] | 
S=C(Nc1ccccn1)c1ccccn1 |  | inactive: 13.1%
Cc1ccc2c(C)nc(Nc3nc(CSc4nnnn4-c4ccccc4)cc(=O)[nH]3)nc2c1 | active: 11.2 µM | 
COc1ccc(C(=O)CN2C(=O)NC3(CCCc4ccccc43)C2=O)cc1 (stereo not drawn) |  | inactive: -10.7%

Compound | Potency | activity change, negative = inhibition
CCCn1c(C(C)Nc2nc(-c3ccc(Cl)c([N+](=O)[O-])c3)cs2)nc2ccccc21 (stereo not drawn) | inconclusive [inhibitor, partial curve] | 
O=C(Cn1c(=O)n(Cc2ccccc2)c(=O)c2ccccc21)NCc1ccco1 | inconclusive [inhibitor, single point] | 
COc1cc(-c2nnc(COC(=O)CSc3cc(C)c4ccccc4n3)o2)cc(OC)c1OC | inconclusive [inhibitor, single point] | 
COc1ccc(Cc2noc(CN3CCN(Cc4cccc(Cl)c4)CC3)n2)cc1OC | inconclusive [inhibitor, partial curve] | 
Oc1ccc(N2CCN(c3ncnc4sc5c(c34)CCC5)CC2)cc1 | inconclusive [inhibitor, single point] | 
CCc1cc2c(SCC(=O)N3CC(=O)Nc4ccccc43)ncnc2s1 |  | inactive: -24.6%
CCOC(=O)c1cc(C#N)c(SC)nc1-c1ccccc1 | inconclusive [inhibitor, partial curve] | 
CCCCNc1c(-c2cccc(-c3ccc(OC)cc3)c2)nc2ccc(C)cn12 | inconclusive [inhibitor, partial curve] | 
COc1ccccc1P(=O)(c1ccccc1)c1ccc([N+](=O)[O-])cc1 (stereo not drawn) |  | inactive: 1.32%
S=C(N/N=C/c1ccc2c(c1)OCO2)NC1CC2CCC1C2 (stereo not drawn) | inconclusive [inhibitor, single point] | 
CCCc1cc(-c2nc(N)ncc2-c2csc(C)n2)c(O)cc1OC |  | inactive: 0.664%
C=CCn1c(O)c(N=NC(=S)Nc2ccc(OC)cc2)c2ccccc21 | inconclusive [inhibitor, full curve] | 
NC(=O)c1c(NC(=O)C2COc3ccccc3O2)sc2c1CCN(Cc1ccccc1)C2 (stereo not drawn) | inconclusive [inhibitor, single point] | 
COc1ccccc1C(=O)NC(CCSC)C(=O)N1CCC(Cc2ccccc2)CC1 (stereo not drawn) | inconclusive [inhibitor, single point] | 
CC(=O)Cn1ncc(Br)c(Br)c1=O | inconclusive [inhibitor, single point] | 
CC(C)C(=O)c1cn(CC(=O)N2CCCc3ccccc32)c2ccccc12 | inconclusive [inhibitor, partial curve, poor fit] | 
Cc1cccc(NC(=O)c2ccc(C(=O)c3ccccc3)cc2)n1 | inconclusive [inhibitor, partial curve] | 
Cn1c(=NC(=O)C2=NNC(=O)CC2)sc2ccccc21 |  | inactive: -11.9%
Cc1cc2ccccn2c1C(=O)c1ccc(Cl)cc1 | inconclusive [inhibitor, partial curve] | 
CC(C)(C)c1ccc(C(=O)NCc2nnc(SCC(=O)N3CCCc4ccccc43)n2-c2ccccc2)cc1 | inconclusive [inhibitor, full curve, poor fit] | 
CCN1CCN(c2ccc(NC(=O)c3ccc4c(c3)[nH]c(=O)n4Cc3ccc(F)cc3)cc2)CC1 | active: 7.08 µM | 
CCOC(=O)c1cccc(-n2c(-c3ccc(OC)cc3)nc3nc4ccccc4nc32)c1 |  | inactive: 1.35%
CCn1cc(/C=N\NC(=O)c2cc(-c3ccccc3OC)nc3ccccc23)c(C)n1 |  | inactive: 24.8%

Compound | Potency | activity change, negative = inhibition
CSC1=N/C(=C\c2ccccc2)C(=O)N1C | inconclusive [inhibitor, partial curve] | 
CN(Cc1ccc(Cl)c(Cl)c1)C(=O)C1=CC=CN2CCS(=O)(=O)N=C12 | inconclusive [inhibitor, partial curve] | 
CCCNCC1C(Oc2ccc(Cl)cc2Cl)C(=O)N1c1cccc(C)c1C (stereo not drawn) | active: 31.6 µM | 
CSc1nc2[nH]c3c(c2c2nnnn12)CCCC3 | inconclusive [inhibitor, partial curve, poor fit] | 
O=C(c1cccs1)N1CCC(c2nc3c(nnn3Cc3ccccc3)c(=O)[nH]2)CC1 |  | inactive: -4.21%
COc1ccc(OC)c(-c2nnc(SCC(=O)N3CCCc4ccccc43)o2)c1 | inconclusive [inhibitor, single point] | 
COc1cccc(C(=O)Nc2cccc(-c3nnc(-c4ccco4)o3)c2)c1 | active: 22.4 µM | 
COc1cc(C(=O)OCC(=O)c2c[nH]c3ccccc23)ccc1OCC(=O)N1CCOCC1 |  | inactive: -24.2%
Cc1ccccc1S(=O)(=O)N1[C@@H](c2ccccc2)C(C(=O)O)=CC[C@H]1c1ccc(Cl)cc1 |  | inactive: 3.61%
COc1ccc(N2CC(O)(c3ccc(F)cc3)[N+]3=C2CCCC3)cc1 (stereo not drawn) |  | inactive: -17.4%
COc1cc(/C=C/c2ccc3cccc(O)c3n2)cc(OC)c1OC | inconclusive [inhibitor, partial curve] | 
CCCCNC(=O)CSc1nc2ccc(NC(=O)CSc3nnc(N)s3)cc2s1 | inconclusive [inhibitor, full curve, poor fit] | 
Cc1cccc(N2CCN(C(=O)c3ccc(Cl)c(S(=O)(=O)NCc4ccco4)c3)CC2)c1C | active: 10 µM | 
CC(C)(C)C(=O)NNc1nc(-c2ccccc2)c2cc(Br)ccc2n1 | inconclusive [inhibitor, single point] | 
CN(C)CCCN=c1cc(-c2ccccc2)oc2ccc(Cl)cc12 | inconclusive [inhibitor, single point] | 
CC(C)(C)c1nc(SCC(=O)Nc2nc3c(s2)CCCC3)c2ccccc2n1 | inconclusive [inhibitor, partial curve, poor fit] | 
COc1cccc(Nc2ncccc2C(=O)NCc2ccccc2)c1 | inconclusive [inhibitor, partial curve] | 
COc1cccc(NC(=S)N(CCc2c(C)[nH]c3ccccc23)Cc2ccco2)c1 | active: 25.1 µM | 
Cc1cc(NS(=O)(=O)c2ccc(NC(=O)COc3ccc(C#N)cc3)cc2)nc(C)n1 |  | inactive: 8.64%
CCOC(=O)c1c(C)[nH]c(C(=O)OCC(=O)Nc2sc(C(=O)N(C)C)c(C)c2C(=O)OCC)c1C | inconclusive [inhibitor, full curve] | 
Cc1ccc2c(c1)C(c1ccccc1)N(C(=O)c1ccc(Br)cc1)CC(=O)N2 (stereo not drawn) | inconclusive [inhibitor, single point] | 
CCC1Oc2ccc(C)cc2N(CC(=O)N(Cc2ccc(C)o2)C2CC(C)(C)NC(C)(C)C2)C1=O (stereo not drawn) | inconclusive [inhibitor, single point] | 

— PubChem BioAssay AID651820 (National Center for Advancing Translational Sciences (NCATS), 2012)
